# Reference: PubChem BioAssay (Tox21)
# “And” between values parts separate entries of the source, which are not always exact repeats. Equal values may be shown once. Inconclusive results, whose numbers are uncertain, are shown with a selection of clear calls. Potencies of inconclusive entries are doubtful fits and often do not repeat. The source made the active and inactive calls. Unless noted, calls come from the whole dose curve; as a rule, active = well fitted inhibition curve with a large enough effect in the signal ratio in the repeat runs; inconclusive = weak or mixed curves, or effect the other way; inactive = flat fitted curve, though single readings scatter; the % refers to the signal ratio.
# Assay: qHTS assay for small molecule agonists of the p53 signaling pathway (AID 651631; calls by dose curve; note: nearly all actives have a fitted effect of over 15% in size)
# Settings: HCT-116 p53RE-bla reporter, beta-lactamase FRET ratio, 16 h; activation: at 73.3 µM (top of the series) unless noted
# How it was run: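 We treat p53RE-bla HCT-116 cells with compounds for 16 h at 37 °C, add LiveBLAzer B/G FRET substrate for 2 h at room temperature, and measure fluorescence intensity.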
# % is set by controls: 0 for no effect and ±100 for the full control effect; potency is the fitted concentration of half-maximal effect; tags give direction and shape of the fitted curve or compound fluorescence and quenching.
SMILES,Potency,activation
O=C1NCCN1,inactive,
CC(=O)c1ccc2c(c1)CCCC2,inactive,
CC(C#N)(CCC(=O)O)N=NC(C)(C#N)CCC(=O)O (stereo not given),inactive,
CCC(O)OCCCOC (stereo not given),,inconclusive: -1.95%
CCN(Cc1ccccc1)c1ccccc1,"inconclusive: 48 µM [falling, partial curve]",
CN(C)CCN(Cc1ccc(Cl)cc1)c1ccccn1,"inconclusive: 4.52 µM [fluorescent, full curve, poor fit]",
CC(=O)Oc1ccc(C)cc1,inactive,
COC(=O)/C=C(\C)CCC=C(C)C,inactive,
COC(=O)/C=C\C(=O)OC,inactive,
Cc1ccccc1C#N,inactive,
NNS(=O)(=O)c1ccc(Oc2ccc(S(=O)(=O)NN)cc2)cc1,inactive,
CCCCCCCCCCCCCCCC(=O)O,"inconclusive: 77.7 µM [activator, partial curve, poor fit]",
OCc1ccc(Cl)cc1Cl,,inconclusive: -2.02%
CNCCCC1c2ccccc2C=Cc2ccccc21,inactive,
CCc1c(C)[nH]c2c1C(=O)C(CN1CCOCC1)CC2 (stereo not given),inactive,
CC(Cl)C(Cl)Cl (stereo not given),"inconclusive: 26.9 µM [activator, partial curve, poor fit]",
CC[N+](CC)(CC)CCOc1cccc(OCC[N+](CC)(CC)CC)c1OCC[N+](CC)(CC)CC,,inconclusive: 0.742%
COc1ccc(N)c(OC)c1,inactive,
C=CCCCCCCCCC(=O)OCC,inactive,
CCOC(=O)Cn1c(=O)sc2cccc(Cl)c21,"inconclusive: 19.3 µM [falling, partial curve, poor fit]",
CCOC(=O)C(Br)c1ccccc1 (stereo not given),inactive,
O=C(c1ccccc1)c1ccc2n1CCC2C(=O)O (stereo not given),"inconclusive: 33.5 µM [rising, partial curve, poor fit]",
CCCCCCCCCCCc1ccccc1,"inconclusive: 75.9 µM [activator, partial curve, poor fit]",
COc1ccccc1OC(=O)Oc1ccccc1OC,inactive,
CC(O)CC(C)(C)O (stereo not given),inactive,
CC(=O)Nc1nnc(S(N)(=O)=O)s1,inactive,

# Assay: qHTS assay for small molecule disruptors of the mitochondrial membrane potential (AID 720635)
# Settings: HepG2 mitochondrial membrane potential, Mito-MPS dye ratio; ratio activity, negative = MMP loss: at 83.2 µM (top of the series) unless noted
# How it was run: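 HepG2 cells exposed to compound 1 hr at 37C, then Mito-MPS dye 30 min. Ratio read of aggregate (540/590 nm) versus monomer (490/535 nm) fluorescence.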
SMILES,"ratio activity, negative = MMP loss",Potency
O=C(O)Cc1c(Cl)ccc(Cl)c1Cl,inconclusive: 31.7%,
C[Si]1(C)N[Si](C)(C)N[Si](C)(C)N1,,active: 27.3 µM
CC1=C(C)C(=O)C(CCCCC#CCCCC#CCO)=C(C)C1=O,,"inconclusive: 26.6 µM [activator, partial curve]"
CCCCC(CC)COC(=O)CCCCCCCCC(=O)OCC(CC)CCCC (stereo not given),,inactive
O=C(O)c1cn(-c2ccc(F)cc2)c2cc(N3CCNCC3)c(F)cc2c1=O,,"inconclusive: 21.1 µM [activator, partial curve, poor fit]"
CC(C)=CC(=O)O,,inactive
CC(C)c1ccccc1C(C)C,,"inconclusive: 1.37 µM [activator, full curve, poor fit]"
CCNC(=O)NCCCOc1cccc(CN2CCCCC2)c1,inconclusive: -0.779%,
Nc1ccc(C(=O)OCCCOC(=O)c2ccc(N)cc2)cc1,,active: 27.3 µM
CCCc1nn(C)c2c(=O)[nH]c(-c3cc(S(=O)(=O)N4CCN(C)CC4)ccc3OCC)nc12,,"inconclusive: 8.41 µM [inhibitor, partial curve]"
NC(=O)Cn1c(=O)cc(CCN2CCN(c3nccc4sccc34)CC2)c2ccc(F)cc21,,"inconclusive: 0.77 µM [activator, full curve, poor fit]"
COc1ccc2c(c1)c(CC(=O)O)c(C)n2C(=O)c1ccc(Cl)cc1,,"inconclusive: 4.22 µM [activator, full curve] and inconclusive: 10.9 µM [activator, partial curve, poor fit] and inconclusive: 6.86 µM [activator, full curve]"
Cc1ccc(/C(=C\CN2CCCC2)c2ccccn2)cc1,inconclusive: 17.5%,
O=C1NCCN1,inconclusive: 10.4%,
CC(=O)c1ccc2c(c1)CCCC2,,inactive
CC(C#N)(CCC(=O)O)N=NC(C)(C#N)CCC(=O)O (stereo not given),,inactive
CCC(O)OCCCOC (stereo not given),inconclusive: 17.7%,
CCN(Cc1ccccc1)c1ccccc1,,"inconclusive: 27 µM [inhibitor, partial curve]"
CN(C)CCN(Cc1ccc(Cl)cc1)c1ccccn1,inconclusive: 27.4% [at 39.1 µM],
CC(=O)Oc1ccc(C)cc1,,"inconclusive: 2.43 µM [fluorescent, single point]"

SMILES,"ratio activity, negative = MMP loss",Potency
COC(=O)/C=C(\C)CCC=C(C)C,,inactive
COC(=O)/C=C\C(=O)OC,inconclusive: 20.8%,
Cc1ccccc1C#N,inconclusive: -3.72%,
NNS(=O)(=O)c1ccc(Oc2ccc(S(=O)(=O)NN)cc2)cc1,inconclusive: -25%,
CCCCCCCCCCCCCCCC(=O)O,inconclusive: 8.79% [at 95.3 µM],
OCc1ccc(Cl)cc1Cl,,inactive
CNCCCC1c2ccccc2C=Cc2ccccc21,,"inconclusive: 14.3 µM [inhibitor, single point]"
CCc1c(C)[nH]c2c1C(=O)C(CN1CCOCC1)CC2 (stereo not given),,inactive
CC(Cl)C(Cl)Cl (stereo not given),,inactive
CC[N+](CC)(CC)CCOc1cccc(OCC[N+](CC)(CC)CC)c1OCC[N+](CC)(CC)CC,inconclusive: 31.9%,
COc1ccc(N)c(OC)c1,,"inconclusive: 1.17 µM [activator, full curve, poor fit] and active: 54.5 µM"
C=CCCCCCCCCC(=O)OCC,inconclusive: 24%,
CCOC(=O)Cn1c(=O)sc2cccc(Cl)c21,,inconclusive: 21.7 µM [fluorescent]
CCOC(=O)C(Br)c1ccccc1 (stereo not given),,inactive
O=C(c1ccccc1)c1ccc2n1CCC2C(=O)O (stereo not given),,"inconclusive: 3.2 µM [activator, partial curve, poor fit] and inactive"
CCCCCCCCCCCc1ccccc1,inconclusive: -16.6%,
COc1ccccc1OC(=O)Oc1ccccc1OC,,inactive
CC(O)CC(C)(C)O (stereo not given),,"inconclusive: 75.4 µM [inhibitor, single point]"
CC(=O)Nc1nnc(S(N)(=O)=O)s1,inconclusive: 7.5% [at 95.3 µM],
